To fix the notation:
T1: UNK ZnF1-6 (called full-length) (human, UniProt Q9C0B0 30-357)
T1 sequence: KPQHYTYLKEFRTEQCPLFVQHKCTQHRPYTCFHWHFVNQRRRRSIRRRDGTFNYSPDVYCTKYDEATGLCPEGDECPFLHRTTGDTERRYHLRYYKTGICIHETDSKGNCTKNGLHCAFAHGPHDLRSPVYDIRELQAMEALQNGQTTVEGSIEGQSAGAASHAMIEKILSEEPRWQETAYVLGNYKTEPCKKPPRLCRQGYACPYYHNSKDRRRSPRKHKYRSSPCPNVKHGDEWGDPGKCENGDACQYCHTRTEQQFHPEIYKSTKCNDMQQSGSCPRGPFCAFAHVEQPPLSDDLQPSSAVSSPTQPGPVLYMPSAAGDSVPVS

B1: chr1:66374421:66374522:+|3pUTR|ENSG00000184588|msi1|FALSE|bound_elsewhere (ssRNA)
RNA: GGGAGUUCUACAGUCCGACGAUCACUGCAUUGUUUCAGGUGGACAUUUUAUCAUUUUCAAAUGUUUCUCACAAUGUAUGUUAUAGUAUUAUUAUUAUAUAUUGUGUUCAAAUGCAUUCUAAAGAGACUUUUAUAUGAGGUGAACAACAGAGGAUUGAGCAUCA
B2: chr7:135927258:135927359:-|3pUTR|ENSG00000105887|msi1_unk|FALSE|overlapping (ssRNA)
RNA: GGGAGUUCUACAGUCCGACGAUCCAGCUUCAGACUGUUAUCUAUAGGCUUAUCGUUCAAAUACAGCACUUGAAUAUCCCAAGUAGUUCUUCUACGCAUAGCUCACCUUUCUAAACCCAGUUAAGCAUGGAAGAGAGGUAGUAGCAACAGAGGAUUGAGCAUCA
B3: chr3:100713726:100713879:+|CDS|ENSG00000114354|unk|total|mutant (ssRNA)
RNA: GGGAGUUCUACAGUCCGACGAUCACUUGGGGAGGAUAUUCGGCGAAUUCCUAUUCAUAAUGAAGAUAUUACUUAUGAUGAAUCCGUGCUAAUGAUGCAACGAGUUUUCAGAGGAAAACUUCUGAGUAAUGAUGAAGUAACAAUCAACAGAGGAUUGAGCAUCA
B4: chr10:32033860:32033975:-|CDS|ENSG00000170759|unk|FALSE|unique (ssRNA)
RNA: GGGAGUUCUACAGUCCGACGAUCCACAGUGGAUAAAGAUAUUACUCUUACCAAUGAUAAACCAGCAACCGCAAUUGGAGUUAUAGGAAAUUUUACUGAUGCUGAAAGAAGAAAGUGUGAAGAAGAAAUUGCUAAAUUAUACAACAACAGAGGAUUGAGCAUCA
B5: chr19:13095865:13096029:+|3pUTR|ENSG00000008441|msi1|FALSE|unique (ssRNA)
RNA: GGGAGUUCUACAGUCCGACGAUCCCGCCCCCCACGUGGCCACUUUUCUCUGGAUUUUAGCUGUAAUGUCUUUACUCUUUAUUUAGGGGUGGGGCAUUCAUUGUUUGGGUCUUUUGCUGUUGGAAUGGGAACUCCUCCUCCAUUCAACAGAGGAUUGAGCAUCA
B6: chr1:6592219:6592320:-|3pUTR|ENSG00000162413|unk|FALSE|unique (ssRNA)
RNA: GGGAGUUCUACAGUCCGACGAUCCCCAAAGUAGCCUUGGCUUGAGUUUUUGUCCUUGCCUCCUUUUUAGAGAAGAGGGCAUUUAGACUGCAUUUUCCUGGUUAAAGAAGGUUAAAGCAAAUGUUUAUUGCCUUUUCUAGUGAACAACAGAGGAUUGAGCAUCA
B7: chr3:69085097:69085224:+|CDS|ENSG00000144746|unk|FALSE|bound_elsewhere (ssRNA)
RNA: GGGAGUUCUACAGUCCGACGAUCGGGUUCCGAUCGCUUUGCCCGGCCGGACUUCAGGGACAUUUCCAAAUGGAACAACCGCGUAGUGAGCAACCUGCUCUAUUACCAGACCAACUACCUGGUGGUGGCUGCCAUGAUGAUUUCCAACAGAGGAUUGAGCAUCA
B8: ENSG00000136451:be:win_4151|3pUTR|ENSG00000136451|bound_else_gene|NA|bound_elsewhere_windowed (ssRNA)
RNA: GGGAGUUCUACAGUCCGACGAUCUGUUGAAGGCACGACAGCCACUGCUCUACGAAAAGGCAGAGUACGUUUUUCCCUUCUGGUUGUAACCUGGUUGAGAGCUUCCCCUUUAUCAGAUUGGCAGCUAAACAGUUGUAUUAGAUACAACAGAGGAUUGAGCAUCA
B9: ENSG00000198589:be:win_6201|CDS|ENSG00000198589|bound_else_gene|NA|bound_elsewhere_windowed (ssRNA)
RNA: GGGAGUUCUACAGUCCGACGAUCUAGCCUGAGCACACCAGCUCAGCUUGUGGCCCCCUCUGUUGUAGUAAAGGGCACUCUUUCUGUCACCUCCUCCGAACUCUAUUUUGAGGUGGAUGAAGAGGAUCCUAACUUCAAAAAAAUCAACAGAGGAUUGAGCAUCA
B10: chr15:57953423:57955269:-|three_prime_utr|ENSG00000128918|control|control|control (ssRNA)
RNA: GGGAGUUCUACAGUCCGACGAUCGAAGGCCAAGAAGGAGGAUGAAGCCCAGCCUGCACGUCUGUCCCUCUCUGCUUUCUCUGUAGGGCCCAGCUCUCAGGAAUACAAAGUUGAGCCACGGUCCUUACUUAAAGAUUGAAAAGACAACAGAGGAUUGAGCAUCA
B11: ENSG00000136451:be:win_801|CDS|ENSG00000136451|bound_else_gene|NA|bound_elsewhere_windowed (ssRNA)
RNA: GGGAGUUCUACAGUCCGACGAUCUGCUGCCUUUGCCACCAAAGACAGACUGCGGACACACAUGGUGCGCCAUGAAGGCAAGGUAUCAUGUAACAUCUGUGGGAAGCUCCUGAGUGCAGCAUACAUCACCAGCCACUUAAAGACCAACAGAGGAUUGAGCAUCA
B12: chr13:44143149:44143917:-|three_prime_utr|ENSG00000139656|control|control|control (ssRNA)
RNA: GGGAGUUCUACAGUCCGACGAUCUCAGGCAAGACUCAGGACUGCUCUGGACAUUCAGAAGCUGAGUGUGCAAGUGUGCUGUGUAGUUCAAGGCCACCACCACUGAAGAGGCCAAGGACACCUUAGUAGGAAUUCUAACCUGGCCAACAGAGGAUUGAGCAUCA
B13: ENSG00000070961:be:win_4651|3pUTR|ENSG00000070961|bound_else_gene|NA|bound_elsewhere_windowed (ssRNA)
RNA: GGGAGUUCUACAGUCCGACGAUCACAUGUUAGUUUAGUGAUGUCUUGGUGAACUGUGAGUGAACUGUAUUGAUUUUUCUAAUCUUUAGAGACCUUCACACAGCAUGAGGGCUGUUGGCAUUUUGAAAAAGGUUAAUAAGUAGACAACAGAGGAUUGAGCAUCA
B14: chr18:9283235:9283336:+|3pUTR|ENSG00000101745|msi1|FALSE|bound_elsewhere (ssRNA)
RNA: GGGAGUUCUACAGUCCGACGAUCCUGAUGGUUCAACCAGAGGUCUGGGAAAUAGCACUGUUGGCCCAAACAGAACAGGCUUUUAGAAGAUAAAAGCGACAAGAAGGAAUCUGGUGAAUUUUAGUCAUCCCAGCUUUUUAGUCUCAACAGAGGAUUGAGCAUCA

14 molecules from PMC12136788 can be followed below.

Some of the results follow.

The experiment deals with T1, UNK ZnF1-6 (called full-length). Briefly: nsRBNS (natural sequence RNA bind-n-seq); RBNS binding buffer (assumed for nsRBNS): 25 mM Tris pH 7.5, 150 mM KCl, 3 mM MgCl2, 0.01% Triton X-100, 500 ug/ml BSA, 20 U/ml SUPERase-In, 4 C; UNK is unkempt and MSI1 is Musashi-1; names of the RNAs are library labels; protein concentration not given here; high values mean tight binding.
In turn, B1 registered a binding signal of 0.767 enrichment R.

Take B2: the binding signal came to 0.672 enrichment R.

In turn, B3 returned a binding signal of 0.371 enrichment R.

B4 yielded a binding signal of 1.09 enrichment R.

Take B5: the binding signal turned out to be 1.13 enrichment R.

For the molecule B6, the binding signal amounted to 0.382 enrichment R.

Take B7: the binding signal came out at 0.785 enrichment R.

The molecule B8 gave a binding signal of 0.49 enrichment R.

Molecule B9 returned a binding signal of 0.534 enrichment R.

The molecule B10 returned a binding signal of 0.542 enrichment R.

B11 registered a binding signal of 0.478 enrichment R.

Molecule B12 returned a binding signal of 0.867 enrichment R.

The molecule B13 showed a binding signal of 1.36 enrichment R.

Molecule B14 gave a binding signal of 0.774 enrichment R.
